Assay results published in patent US10048253B2, “Method for identifying compounds of therapeutic interest” (UCB PHARMA S.A., priority 2012, dated 2018).

Tests used:
[1] = molecular target: T1, IgE-Fc (Homo sapiens, UniProt P01854, N146Q/N252Q); test: ITC of Fab binding to IgE-Fc
T1 construct: made in house
Description: Experiments were carried out using a Microcal iTC200 calorimeter (GE Healthcare) at 20° C. in PBS buffer pH 7.4. Depending on the final ratio required, 25-30 μM of protein was used in the calorimeter cell and 10-20 fold higher concentrations were used in the syringe. The number and volume of injections were varied as appropriate. Heats of dilution were subtracted from the data before analysis. […] Analyses were carried out using MicroCal Origin, using a 1:1 binding model when IgE-Fc or Fcε3-4 was titrated into Fab, or a sequential 1:1 binding model when Fab was titrated into IgE-Fc or Fcε3-4.
One way to establish experimentally that IgE-Fc adopts an extended structure as it flips between two bent conformations, is to determine the number of Fab binding sites that are available for binding: if rigidly and exclusively bent, only one site will initially be accessible, but if it can flip, then two sites are accessible. We therefore studied the interaction between Fab and IgE-Fc by isothermal titration calorimetry (ITC) and compared with the binding to Fcε3-4 which, lacking the Cε2 domains, always has two accessible sites.

[2] = molecular target: IgE-Fc (Homo sapiens, UniProt P01854, E170C); test: Intramolecular FRET of labelled IgE-Fc (unbending) on titration of anti-IgE Fab; type: biochemical
Sequence of IgE-Fc (Homo sapiens, UniProt P01854, E170C) (P01854 106-428 isoform P01854-1 E170C limits assumed): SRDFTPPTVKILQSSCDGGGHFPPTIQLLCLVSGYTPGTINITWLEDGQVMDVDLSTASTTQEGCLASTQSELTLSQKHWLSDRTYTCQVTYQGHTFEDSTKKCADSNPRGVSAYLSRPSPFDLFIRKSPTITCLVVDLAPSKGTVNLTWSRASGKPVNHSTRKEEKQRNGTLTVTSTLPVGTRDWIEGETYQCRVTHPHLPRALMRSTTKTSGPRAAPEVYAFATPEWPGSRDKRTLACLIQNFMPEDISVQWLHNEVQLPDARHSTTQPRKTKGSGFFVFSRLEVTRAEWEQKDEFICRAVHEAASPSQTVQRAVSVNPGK
Description: Intramolecular FRET was carried out using IgE-Fc(E289C)_BirA (IgE-Fc with the BirA recognition motif added to the C-terminus and biotinylaated according to the manufacturer's instructions (Avidity)) labeled with thiol reactive terbium chelate (Invitrogen) and streptavidin labeled with amine reactive Alexa488 (Invitrogen), each according to the manufacturer's instructions. Terbium labeled IgE-Fc and Alexa488 labeled streptavidin were mixed in equi-molar ratios (FAC 25 nM) with anti-IgE Fab titrated from 30 uM in PBS and incubated for 120 minutes at room temperature. FRET was measured on an Analyst LJL-HT (excitation 200 nm, emission 485 and 520 nm, each at 10 nm slit width) and plotted as a function of Fab concentration.
In envisaging the mechanism of formation of the Fab^1|IgE-Fc|Fab^2 complex, the question remains: does binding of Fab^1 trap IgE-Fc in an extended conformation or can it still flex between the extended and bent structures? These two alternatives can be discriminated using intra-molecular FRET (Förster Resonance Energy Transfer). […] Here, we titrated Fab into IgE-Fc labelled with donor and acceptor fluorophores in the Cε2 and Cε4 domains respectively, to observe whether unbending (detected by a decrease in the FRET signal) occurs upon engagement of Fab^1 or Fab^2.
Further antibodies were generated which were able to inhibit IgE binding to its receptor FcεRIα. Of these, six were all able to unbend IgE to different degrees as determined by FRET analysis conducted using the method described in Example 2 above for Fab7. The affinities of these six antibodies were also determined (Table 3).

[3] = molecular target: IgE binding to FcεRIα (Homo sapiens, UniProt P01854); test: Inhibition of binding of IgE to FcεRIα by surface plasmon resonance
Sequence of IgE binding to FcεRIα (P01854 1-428 isoform P01854-1): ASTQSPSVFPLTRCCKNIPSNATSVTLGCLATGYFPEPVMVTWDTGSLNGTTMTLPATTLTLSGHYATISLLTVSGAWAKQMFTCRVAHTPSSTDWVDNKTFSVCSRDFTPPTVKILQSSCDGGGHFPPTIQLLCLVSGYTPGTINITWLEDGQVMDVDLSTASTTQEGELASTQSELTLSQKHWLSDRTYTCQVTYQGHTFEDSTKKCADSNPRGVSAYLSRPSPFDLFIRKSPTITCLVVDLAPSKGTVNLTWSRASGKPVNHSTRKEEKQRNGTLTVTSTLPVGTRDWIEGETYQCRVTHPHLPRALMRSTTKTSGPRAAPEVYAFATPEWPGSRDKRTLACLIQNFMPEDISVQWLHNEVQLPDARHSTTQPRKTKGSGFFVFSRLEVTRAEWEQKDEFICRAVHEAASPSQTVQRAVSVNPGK
Description: Anti-human IgE antibodies were generated using UCB proprietary core antibody discovery technology. The isolated V-region genes were sub cloned in the human IgG1 Fab format for subsequent expression and purification. The Fab was transiently expressed in CHO cells and purified by Protein G affinity chromatography followed by size exclusion chromatography. The ability of the Fab to inhibit the binding of IgE (Uniprot reference P01854) to FcεRIα (Uniprot reference P12319) was determined by surface plasmon resonance.

T1 sequence (P01854 106-428 isoform P01854-1 N146Q/N252Q limits assumed): as the sequence (P01854 106-428 isoform P01854-1 E170C limits assumed) above, with N41Q, C65E, N147Q counted along it

B1: Fab7: Fab fragment of a novel IgG binding human IgE-Fc and inhibiting its interaction with FcεRIα; SEQ ID NO: 2 and 4, FIG. 14 (antibody)
heavy: MEWIWIFLFLLSVTTGVHSQVQLQQSGPGLVKPSQTLSLTCGISGDSVSSNSAAWNWLRQSPSRGLEWLGRTYYRSKWYNDYAVSMKSRITINPDTSRNQFSLQLNSVTPEDTAVYYCARDGEISYDYYYYGMDVWGRGTLVTVSSASTKGPSVFPLAPSSKSTSGGTAALGCLVKDYFPEPVTVSWNSGALTSGVHTFPAVLQSSGLYSLSSVVTVPSSSLGTQTYICNVNHKPSNTKVDKKVEPKSC
light: MDWSPLLLTLLAHCTGSWAQSVLTQPPSASGTPGQRVTISCSGSSSNIGNNGVNWYQQVPGKPPKLLIYYDDLLPSGVSDRFSGSKSGTSASLAISGLQSEDEADYYCEAWDDSLDGVVFGGGTKLTVLGQPKAAPSVTLFPPSSEELQANKATLVCLISDFYPGAVTVAWKADSSPVKAGVETTTPSKQSNNKYAASSYLSLTPEQWKSHRSYSCQVTHEGSTVEKTVAPTECS
modifications: FAB7 Heavy Chain Amino Acid; FAB7 Light Chain Polynucleotide
B1 showed a Kd ([1]; 2Fab|1IgE-Fc, Fab titrated into IgE-Fc, sequential model, second Fab (2:1), read-out: Kd ITC) of 1500 nM, a Kd ([1]; Fab titrated into IgE-Fc, stoichiometry Fab:IgE-Fc 1:1, read-out: Kd) of 76 nM and a Kd ([1]; IgE-Fc titrated into Fab, read-out: Kd) of 70 nM. For the same molecule, the “normalised FRET mean” value ([2]; [Fab] 0.152 nM, [Fab]/[Fc] 0.00608) was 1, the “normalised FRET mean” value ([2]; [Fab] 0.45 nM, [Fab]/[Fc] 0.018) was 0.2 and the “normalised FRET mean” value ([2]; [Fab] 1.37 nM, [Fab]/[Fc] 0.0548) was 1.55. The “normalised FRET mean” value ([2]; [Fab] 4.4 nM, [Fab]/[Fc] 0.176) was 0.1, the “normalised FRET mean” value ([2]; [Fab] 12.3 nM, [Fab]/[Fc] 0.492) was 2 and the “normalised FRET mean” value ([2]; [Fab] 37.03 nM, [Fab]/[Fc] 1.4812) was 9.675. For the same molecule, the “normalised FRET mean” value ([2]; [Fab] 111 nM, [Fab]/[Fc] 4.44) was 28.775, the “normalised FRET mean” value ([2]; [Fab] 333 nM, [Fab]/[Fc] 13.32) was 39.275 and the “normalised FRET mean” value ([2]; [Fab] 1000 nM, [Fab]/[Fc] 40) was 43.375. For the same molecule, the “normalised FRET mean” value ([2]; [Fab] 3000 nM, [Fab]/[Fc] 120, IgE-Fc 25 nM, 120 minutes room temperature) was 41.05, the “unbending of IgE-Fc detected by FRET” value ([2]; in words) was “decrease in FRET clearly occurred only upon binding of Fab^2” and the “inhibition of IgE binding to FcεRIα” value [3] was “achieves inhibition of this interaction”.

Where two headings read alike, the source gives them in different places.
